Screen size: about 360,000 compounds; about 16,000 (4.4%) were called active. Inconclusive means that the source gave no clear call. Such entries were picked first, then a sample of the others. Calls come from the whole dose curve; as a rule, active = well fitted inhibition curve with a large enough effect; inconclusive = small, poorly fitted or top-dose-only effect; inactive = no such curve, though single readings can be large or run the other way. Where the call is inconclusive, the potency comes from a doubtful curve fit.
target: Bromodomain adjacent to zinc finger domain protein 2B (Homo sapiens) (UniProt Q9UIF8); experiment: qHTS Assay for Inhibitors of BAZ2B; settings: AlphaScreen BAZ2B-H3K14Ac peptide displacement; activity change, negative = inhibition: at 114 µM (top of the series); note: nearly all actives have a fitted effect of over 60% in size
Method in brief: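 Protein-peptide AlphaScreen: BAZ2B 50 nM, b-H3K14Ac 50 nM, 1x PBS pH 7.4 + 0.01% Tween-20. Preincubation 30 min RT; cpd 30 min RT (top 110 uM); beads 20 min RT, light-protected.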
% is set by controls: 0 for no effect and ±100 for the full control effect; potency is the fitted concentration of half-maximal effect; tags give direction and shape of the fitted curve.

UniProt Q9UIF8, sequence (Q9UIF8 whole entry, looked up, the tested form may be a part): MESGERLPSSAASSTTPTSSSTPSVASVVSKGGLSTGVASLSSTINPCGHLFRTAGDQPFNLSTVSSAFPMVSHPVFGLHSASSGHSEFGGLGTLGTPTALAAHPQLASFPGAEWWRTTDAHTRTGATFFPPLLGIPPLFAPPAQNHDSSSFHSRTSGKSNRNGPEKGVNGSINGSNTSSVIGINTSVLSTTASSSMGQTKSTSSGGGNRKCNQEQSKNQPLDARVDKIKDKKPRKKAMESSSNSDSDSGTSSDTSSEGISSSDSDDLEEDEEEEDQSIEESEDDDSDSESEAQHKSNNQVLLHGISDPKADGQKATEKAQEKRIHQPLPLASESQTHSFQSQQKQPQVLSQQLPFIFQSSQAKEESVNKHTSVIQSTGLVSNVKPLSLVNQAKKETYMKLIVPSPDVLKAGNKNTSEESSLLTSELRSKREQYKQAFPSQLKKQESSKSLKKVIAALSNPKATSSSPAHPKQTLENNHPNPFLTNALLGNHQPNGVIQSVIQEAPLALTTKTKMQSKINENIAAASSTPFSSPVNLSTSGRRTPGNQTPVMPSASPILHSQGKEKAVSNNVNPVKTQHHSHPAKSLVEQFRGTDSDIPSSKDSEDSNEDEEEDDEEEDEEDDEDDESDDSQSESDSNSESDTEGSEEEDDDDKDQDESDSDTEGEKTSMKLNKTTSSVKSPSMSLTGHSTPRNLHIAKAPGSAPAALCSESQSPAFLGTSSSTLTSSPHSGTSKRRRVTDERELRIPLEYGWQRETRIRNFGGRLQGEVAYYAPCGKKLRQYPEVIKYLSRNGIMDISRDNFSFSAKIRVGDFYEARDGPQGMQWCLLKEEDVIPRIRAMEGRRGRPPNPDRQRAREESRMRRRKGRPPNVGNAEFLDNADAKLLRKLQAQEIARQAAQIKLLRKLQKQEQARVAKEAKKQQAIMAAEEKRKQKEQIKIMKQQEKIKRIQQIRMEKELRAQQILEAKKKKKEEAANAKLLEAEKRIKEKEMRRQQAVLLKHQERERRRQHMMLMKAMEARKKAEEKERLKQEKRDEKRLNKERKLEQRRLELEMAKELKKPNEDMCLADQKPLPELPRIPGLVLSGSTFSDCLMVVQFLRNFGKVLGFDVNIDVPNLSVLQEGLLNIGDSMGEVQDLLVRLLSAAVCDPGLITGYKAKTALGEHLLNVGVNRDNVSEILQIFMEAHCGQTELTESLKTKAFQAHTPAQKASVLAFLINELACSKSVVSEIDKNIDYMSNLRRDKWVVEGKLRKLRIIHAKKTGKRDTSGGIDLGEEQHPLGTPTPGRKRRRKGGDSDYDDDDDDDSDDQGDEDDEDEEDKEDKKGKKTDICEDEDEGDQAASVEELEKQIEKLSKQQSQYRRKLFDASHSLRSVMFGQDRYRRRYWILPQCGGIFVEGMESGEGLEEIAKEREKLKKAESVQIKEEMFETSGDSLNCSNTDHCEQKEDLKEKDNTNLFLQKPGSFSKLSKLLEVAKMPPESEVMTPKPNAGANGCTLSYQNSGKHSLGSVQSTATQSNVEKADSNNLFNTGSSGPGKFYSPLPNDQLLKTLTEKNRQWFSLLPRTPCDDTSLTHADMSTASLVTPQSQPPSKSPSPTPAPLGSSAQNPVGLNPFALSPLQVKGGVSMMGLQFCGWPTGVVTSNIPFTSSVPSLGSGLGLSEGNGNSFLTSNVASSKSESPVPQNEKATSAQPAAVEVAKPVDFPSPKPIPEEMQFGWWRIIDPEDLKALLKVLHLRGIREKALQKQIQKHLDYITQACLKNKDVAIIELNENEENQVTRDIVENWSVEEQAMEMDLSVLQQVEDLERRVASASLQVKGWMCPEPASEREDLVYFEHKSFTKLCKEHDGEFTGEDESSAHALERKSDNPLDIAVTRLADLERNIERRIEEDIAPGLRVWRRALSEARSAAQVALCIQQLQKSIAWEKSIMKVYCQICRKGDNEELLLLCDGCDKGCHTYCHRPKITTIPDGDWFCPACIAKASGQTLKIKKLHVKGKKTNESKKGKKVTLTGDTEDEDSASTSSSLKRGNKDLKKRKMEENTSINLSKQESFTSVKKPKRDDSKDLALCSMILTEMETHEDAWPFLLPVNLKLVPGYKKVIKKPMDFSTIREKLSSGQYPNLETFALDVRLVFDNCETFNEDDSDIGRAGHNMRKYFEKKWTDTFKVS

| SMILES | Potency | activity change, negative = inhibition |
| --- | --- | --- |
| Cc1cc(C)c(C)c(S(=O)(=O)N2CCC(C(=O)NC3=NCCS3)CC2)c1C | inconclusive: 89.1 µM [inhibitor, single point] | – |
| COc1cccc(/C=C2\SC(=S)N(N3C(=O)CCCC3=O)C2=O)c1 | active: 25.1 µM | – |
| COc1cc(NC(=O)/C=C/c2ccccc2)c(C(=O)O)cc1OC | – | inactive: -5.47% |
| CC(Oc1ccc([N+](=O)[O-])cc1)C(=O)NCC1CCCO1 (stereo unspecified) | – | inactive: -1.33% |
| Cc1cccc(Nc2ccc(NCc3ccccc3)nn2)c1 | – | inactive: -29.1% |
| CCc1cccc(CC)c1NC(=O)CN1CCN(c2ccccc2)CC1 | inconclusive: 39.8 µM [inhibitor, partial curve] | – |
| C=CCOC(=O)C(C#N)c1nc2ccccc2nc1N1CCN(c2ccccc2OCC)CC1 (stereo unspecified) | inconclusive: 28.2 µM [inhibitor, full curve] | – |
| Cc1nn(CCc2nn[nH]n2)c2nc(-c3ccc(C4CCCCC4)cc3)cc(C(F)(F)F)c12 | inconclusive: 70.8 µM [inhibitor, partial curve] | – |
| O=C(NCc1ccccc1)c1ccc(Cn2c(=O)c3cccn3c3cccnc32)cc1 | – | inactive: -21.9% |
| COc1ccc(OC)c(/C=C2\SC(=S)N(NS(=O)(=O)c3ccc(C)cc3)C2=O)c1 | inconclusive: 44.7 µM [inhibitor, partial curve] | – |
| O=c1cc(CSc2ccc(Cl)cc2)nc(-c2ccccn2)[nH]1 | active: 28.2 µM | – |
| COCCCC/C(=N\OCCN)c1ccc(C(F)(F)F)cc1 | inactive | – |
| COc1ccccc1OCCCCNCCO | – | inactive: 0.543% |
| CCCC(c1nnnn1Cc1cccs1)N1CCN(C2CCCC2)CC1 (stereo unspecified) | inconclusive: 100 µM [inhibitor, single point] | – |
| N=c1c2c(-c3ccccc3)c(-c3ccccc3)n(Cc3ccco3)c2ncn1CCCN1CCOCC1 | inconclusive: 44.7 µM [inhibitor, partial curve] | – |
| Clc1ccccc1Nc1nc(-c2cccnc2)cs1 | active: 56.2 µM | – |
| O=c1[nH]c(CSc2nc3ccccc3s2)nc2ccccc12 | – | inactive: 1.62% |
| O=C(NC1CCCC1)C(c1cccs1)N(CC1CCCO1)C(=O)Cc1cccs1 (stereo unspecified) | – | inactive: 7.05% |
| CC(C)N1CCc2c(sc(NC(=S)NC(=O)c3ccccc3)c2C#N)C1 | inconclusive: 50.1 µM [inhibitor, partial curve] | – |
| COc1ccc(-c2cc(OC(=O)c3ccc(F)cc3)c3c(C)oc(C)c3c(=O)c2)cc1 | active: 50.1 µM | – |
| Cc1ccc(-c2csc(NC(=O)C3=NN(c4ccccc4)C(=O)CC3)n2)cc1 | inconclusive: 79.4 µM [inhibitor, single point] | – |
| COc1ccc2ccc3c(c2c1)N=C[C@]1(O3)N(C)c2ccccc2C1(C)C | active: 50.1 µM | – |
| CCC1CCCCN1Cc1nc2ccccc2c(=O)n1CC(C)=O (stereo unspecified) | inconclusive: 89.1 µM [inhibitor, single point] | – |
| O=C(NCCN1CCN(c2ccccc2)CC1)c1ccccc1F | – | inactive: 2.49% |

| SMILES | Potency | activity change, negative = inhibition |
| --- | --- | --- |
| COc1ccccc1N(/N=C1\Sc2ccccc2C1=O)C(C)=O | inconclusive: 79.4 µM [inhibitor, partial curve, poor fit] | – |
| COc1ccc(C(=O)OCC(=O)c2cc(C)n(CC3CCCO3)c2C)cc1[N+](=O)[O-] (stereo unspecified) | inconclusive: 79.4 µM [inhibitor, single point] | – |
| Cc1cc(-c2ccccc2)nc2cc(C(=O)Nc3cc(C(F)(F)F)ccc3Cl)nn12 | inconclusive: 50.1 µM [inhibitor, partial curve] | – |
| COC(=O)c1ccc(CN(Cc2ccc(OC)c(OC)c2)S(=O)(=O)c2ccc(F)c(C(=O)Nc3cc(C)ccc3C)c2)cc1 | – | inactive: -9.32% |
| COc1ccccc1CNN | inconclusive: 89.1 µM [inhibitor, single point] | – |
| N#Cc1nc(/C=C/c2ccc(F)cc2)oc1N1CCCCC1 | inconclusive: 11.2 µM [inhibitor, full curve] | – |
| CN(/N=C/c1ccc([N+](=O)[O-])o1)c1ccccc1 | active: 14.1 µM | – |
| CCCOC(=O)c1ccc(NC(=O)Cc2cccs2)cc1 | inconclusive: 89.1 µM [inhibitor, single point] | – |
| CC(C)(C)c1nnc(SCC(=O)Nc2ccc(N3CCCCC3)cc2)n1N | inconclusive: 89.1 µM [inhibitor, single point] | – |
| N/C(=N\OC(=O)c1cccc2ccccc12)c1cccc([N+](=O)[O-])c1 | inconclusive: 89.1 µM [inhibitor, single point] | – |
| O=C(NCCCN1CCN(c2ccccc2)CC1)Nc1ccccc1C(F)(F)F | inconclusive: 28.2 µM [inhibitor, single point] | – |
| C=CCn1c(SCC(=O)C(C)(C)C)nnc1-c1cccs1 | – | inactive: 5.88% |
| O=C1CN(C(=O)Nc2ccccc2Cl)C(c2ccccc2)c2c(sc3c2CCCC3)N1 (stereo unspecified) | – | inactive: -11.1% |
| CC[n+]1c(C)sc2sc3ccccc3c21 | active: 25.1 µM | – |
| CC(=O)Nc1ccc(NC(=O)CSc2ccc(-c3cccs3)nn2)cc1 | – | inactive: -10.9% |
| CN1CCN(C(=O)CCCN2C(=O)/C(=C/c3cccc(Br)c3)SC2=S)CC1 | active: 44.7 µM | – |
| C#CCOCCOCCOCCNc1nc(N2CCN(C(=O)[C@H](Cc3cc4ccccc4[nH]3)n3cc([C@@H](N)Cc4ccc(O)cc4)nn3)CC2)nc(N2CCN(C(=O)[C@H](Cc3cc4ccccc4[nH]3)n3cc([C@@H](N)CC(C)C)nn3)CC2)n1 | inconclusive: 12.6 µM [inhibitor, partial curve, poor fit] | – |
| CCCCc1nc2ccccc2c(NC(=O)CN(CC)CC)c1CCC | active: 56.2 µM | – |
| CN1CCN(C(c2cccnc2)c2ccc3cccnc3c2O)CC1 (stereo unspecified) | active: 10 µM | – |
| O=C(CNC1CCCC1)Nc1ccc(N2CCCCCC2)cc1 | active: 22.4 µM | – |
| O=Nc1c(O)n(Cc2ccc(Cl)cc2)c2ccccc12 | inconclusive: 89.1 µM [inhibitor, single point] | – |
| O=C(c1cc(-c2ccc(Br)cc2)on1)N1CCOCC1 | – | inactive: 4.59% |
| O=C(NCCc1ccccn1)C1CCN(S(=O)(=O)c2ccc3ccccc3c2)CC1 | – | inactive: -9.14% |
| COc1cccc(C(c2sc3nc(-c4ccco4)nn3c2O)N2CCN(c3ccccc3F)CC2)c1 (stereo unspecified) | inconclusive: 39.8 µM [inhibitor, partial curve] | – |

| SMILES | Potency | activity change, negative = inhibition |
| --- | --- | --- |
| CCc1nc2sc3c(=O)[nH]cnc3c2c2c1CSC(C)(C)C2 | inconclusive: 79.4 µM [inhibitor, single point] | – |
| N/C(=N\OS(=O)(=O)c1ccc2ccccc2c1)c1cccnc1 | inconclusive: 56.2 µM [inhibitor, partial curve] | – |
| O=C(/C=C/c1ccc(Br)cc1)c1ccc(NC2=NCCCS2)cc1 | inconclusive: 39.8 µM [inhibitor, partial curve] | – |
| Fc1ccccc1C1c2[nH]c3ccccc3c2CCN1Cc1ccoc1 (stereo unspecified) | inconclusive: 44.7 µM [inhibitor, partial curve] | – |
| CC(C)(C)n1nnnc1C(c1cccnc1)N1CCN(c2cccc(C(F)(F)F)c2)CC1 (stereo unspecified) | inconclusive: 89.1 µM [inhibitor, single point] | – |
| CCN1CCN(C(c2ccccn2)c2c(NC(=O)c3ccccc3)sc(C)c2C)CC1 (stereo unspecified) | inconclusive: 70.8 µM [inhibitor, single point] | – |
| O=C(CN1C(=O)CC(c2ccco2)Sc2ccccc21)Nc1ccc(Br)cc1 (stereo unspecified) | – | inactive: -3.32% |
| C=C(C)[C@H]1CC=C(C)/C(=N/NC(=O)CNc2ccccc2OC)C1 | inconclusive: 79.4 µM [inhibitor, single point] | – |
| CCOc1ccc(NCc2nnc(SCc3ccc(Cl)cc3)n2-c2ccccc2)cc1 | active: 14.1 µM | – |
| CNC(=O)Cc1csc2ccc(Cl)cc12 | inconclusive: 79.4 µM [inhibitor, partial curve] | – |
| COc1ccc(-c2ccc(CCC(=O)O)n2CC(=O)Nc2cccc(Cl)c2C)cc1 | inconclusive: 79.4 µM [inhibitor, single point] | – |
| CC(=O)c1cccc(Nc2nn(-c3ccc(OC(F)(F)F)cc3)nc2C(C)=O)c1 | – | inactive: -2.14% |
| Cc1c(C(=O)N(Cc2ccc(N(C)C)cc2)Cc2ccco2)oc2cc(Br)ccc12 | inconclusive: 10 µM [inhibitor, partial curve, poor fit] | – |
| Clc1cccc(CN2CCCCCC2)c1Cl | inconclusive: 89.1 µM [inhibitor, single point] | – |
| CCC/C(O)=C1\C(=O)CC(c2ccccc2)CC1=NCCc1c(C)[nH]c2ccc(C)cc12 (stereo unspecified) | inconclusive: 50.1 µM [inhibitor, partial curve] | – |
| O=C(O)C(CO)N=Cc1c(O)c2ccccc2oc1=O (stereo unspecified) | inconclusive: 89.1 µM [inhibitor, single point] | – |
| COc1ccc(-c2csc(NC(=O)CN3C(=O)C4CCCCC4C3=O)n2)c(OC)c1 (stereo unspecified) | inconclusive: 89.1 µM [inhibitor, single point] | – |
| CN(C)c1ccc(/C=C/c2cc[n+](C)cc2)cc1 | inconclusive: 44.7 µM [inhibitor, partial curve] | – |
| C#Cc1ccc([C@@H]2C=C(C(=O)OCC=C)O[C@H](OCCCCO)C2)cc1 | active: 50.1 µM | – |
| COc1ccc(N2CC(C)Cn3c2nc2c3c(=O)n(Cc3ccc(F)cc3)c(=O)n2C)c(OC)c1 (stereo unspecified) | inconclusive: 31.6 µM [inhibitor, partial curve] | – |
| C#CCOCCOCCOCCNc1nc(N2CCN(C(=O)[C@H](Cc3cc4ccccc4[nH]3)n3cc([C@@H](N)C(C)CC)nn3)CC2)nc(N2CCN(C(=O)[C@H](CCCCN)n3cc([C@@H](N)CC(C)C)nn3)CC2)n1 (stereo partly specified) | active: 35.5 µM | – |
| O=C(CNC(=O)c1ccc(F)cc1)NCc1ccc(S(=O)(=O)N2CCOCC2)cc1 | – | inactive: 4.05% |
| N#Cc1nccnc1S(=O)(=O)c1cccs1 | – | inactive: -1.57% |
